From PubChem BioAssay (Tox21)
Values joined by “and” are separate entries in the source; they are usually repeats but may differ in a detail not shown here. Equal entries are not always repeated. The inconclusive results got no clear call from the source; some entries with a clear call stand among them for comparison. Where the call is inconclusive, the potency comes from a doubtful curve fit. Where a structure was tested more than once in an assay, its records may differ in their call. Active and inactive are the calls of the source. Calls follow the shape of the dose curve; as a rule, active = well fitted curve in the direction sought with a large enough effect in the repeat runs; inconclusive = weak or mixed curves; inactive = no such curve, though single readings can be large; an effect the other way counts as inactive or inconclusive.

Tested on: not listed separately
Assay: qHTS assay to identify small molecule agonists of the retinoic acid receptor (RAR) signaling pathway (AID 1159553)
Settings: C3RL4 RARE luciferase reporter, agonist, 6 h; activation: at 73.3 µM (top of the series) unless noted
How it was run: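 In this cell-based screen, 1,000 C3RL4 cells per well were cultured overnight, dosed with test chemicals in DMSO for 6 hr, and assessed for RARE luciferase luminescence.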
Potency is read from the fitted curve at half-maximal effect; tags tell the direction and shape of the fitted curve.

SMILES | Potency
COc1ccc(-c2cc(=S)ss2)cc1 | active: 26.6 µM
COc1ccc2nc(N)sc2c1 | active: 19.3 µM and inconclusive: 3.06 µM [activator, partial curve]
CC(=O)[C@H]1[C@H](C#N)C[C@H]2[C@@H]3CC=C4C[C@@H](O)CC[C@]4(C)[C@H]3CC[C@@]21C | inconclusive: 41.7 µM [activator, partial curve, poor fit]
O=[N+]([O-])C1(Br)COCOC1 | inconclusive: 68.6 µM [inhibitor, single point]

Tested on: not listed separately
Assay: qHTS assay to identify small molecule antagonists of the estrogen related receptor (ERR) signaling pathway from Tox21 library - cell viability counter screen (AID 1224834); also: nearly all actives have a fitted effect of over 30% in size; as to viability change, negative = cytotoxic: % is scaled to controls: 0 for no effect and ±100 for the full control effect
Settings: ERR reporter cells viability, CellTiter-Fluor, 17.5 h; series mostly up to 92.4 µM; viability change, negative = cytotoxic: at the top concentration
How it was run: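 Counter screen run in ERR cells (2,000 cells/well): cells pre-incubated 6 h, then treated with compounds for 17.5 h at 37 C. Fluorescence was read 30 min after CellTiter-Fluor addition.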

SMILES | Potency | viability change, negative = cytotoxic
CCCCCC(C)OC(=O)COc1ccc(Cl)c2cccnc12 (configuration not stated) | inconclusive: 61.1 µM [cytotoxic, partial curve, poor fit] | 
CC(C)=CCC1=C(O)c2ccccc2C(=O)C1=O | inconclusive: 48.3 µM [cytotoxic, partial curve] | 
COC(=O)Nc1nc2ccc(Sc3ccccc3)cc2[nH]1 | inconclusive: 1.88 µM [cytotoxic, full curve] | 
O=C(/N=N/C(=O)OCc1ccccc1)OCc1ccccc1 |  | inactive: -6.4%
OC12N=C(c3ccccc3)SC1Cc1cc(Cl)ccc12 (configuration not stated) | inconclusive: 77 µM [cytotoxic, single point] | 
CC(C)c1c(C(=O)Nc2ccccc2)c(-c2ccccc2)c(-c2ccc(F)cc2)n1CC[C@@H](O)C[C@@H](O)CC(=O)O | inconclusive: 26.3 µM [cytotoxic, partial curve, poor fit] and inconclusive: 57.1 µM [cytotoxic, partial curve, poor fit] | 
NC(N)=NCCN1CCCCCCC1 |  | inactive: 1.48% [at 0.349 µM]
O=C(c1ccc(O)cc1)c1ccc(Cl)cc1 | inconclusive: 70.1 µM [cytotoxic, single point] | 
CCOC(=O)O[C@]1(C(=O)OCCl)CC[C@H]2[C@@H]3CCC4=CC(=O)C=C[C@]4(C)[C@H]3[C@@H](O)C[C@@]21C |  | inactive: 2.08% [at 42.5 µM]
CN(C)c1ccc(C(=N)c2ccc(N(C)C)cc2)cc1 | active: 24 µM and active: 20.9 µM | 
Nc1ccc(Cl)c(N)c1 | inconclusive: 13.7 µM [cytotoxic, full curve] and inconclusive: 21.7 µM [cytotoxic, full curve] | 
CO[C@@]12[C@H](COC(N)=O)C3=C(C(=O)C(C)=C(N)C3=O)N1C[C@@H]1N[C@@H]12 | inconclusive: 21.1 µM [cytotoxic, partial curve] | 
O=C1c2ccccc2C(=O)C1c1ccc2ccccc2n1 | inconclusive: 5.39 µM [cytotoxic, full curve] | 
Oc1ccc(Cc2ccccc2O)cc1 | inconclusive: 69.4 µM [cytotoxic, partial curve, poor fit] | 
Cc1nccn1-c1ccc(Sc2cccc(C3(C(N)=O)CCOCC3)c2)cc1 | inconclusive: 43.3 µM [cytotoxic, partial curve, poor fit] | 
COC(=O)Nc1nc2ccc(C(=O)C3CC3)cc2[nH]1 | inconclusive: 0.596 µM [cytotoxic, full curve] | 
O=C1c2c(O)ccc(Nc3ccc(CCO)cc3)c2C(=O)c2c([N+](=O)[O-])ccc(O)c21 | active: 38.6 µM | 
CCCCN(CCCC)C(=S)SSC(=S)N(CCCC)CCCC | inconclusive: 42.8 µM [cytotoxic, partial curve] | 
Nc1ccc2c(O)cc(S(=O)(=O)O)cc2c1 | active: 27.3 µM and active: 30.6 µM | 
Cc1nc2ccccc2c(=O)o1 |  | inactive: 2.82%
COc1ccc(NC(=O)CC(C)=O)cc1 |  | inactive: 1.4%
COc1ccc(-c2cc(=S)ss2)cc1 | inconclusive: 23.7 µM [cytotoxic, partial curve] | 
CC(=O)[C@H]1[C@H](C#N)C[C@H]2[C@@H]3CC=C4C[C@@H](O)CC[C@]4(C)[C@H]3CC[C@@]21C | inconclusive: 37.1 µM [cytotoxic, single point] | 
O=[N+]([O-])C1(Br)COCOC1 | inconclusive: 48.6 µM [cytotoxic, partial curve] | 

Molecular target: Luciferin 4-monooxygenase (Photinus pyralis) (UniProt P08659)
Assay: qHTS assay to identify small molecule inhibitors of firefly luciferase (AID 1224835); also: nearly all actives have a fitted effect of over 25% in size; as to activity change, negative = inhibition: % is scaled to controls: 0 for no effect and ±100 for the full control effect
Settings: purified P. pyralis luciferase, luminescence inhibition; series mostly up to 115 µM; activity change, negative = inhibition: at the top concentration
How it was run: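 Quantitative HTS format; KM concentrations of both substrates. Purified P. pyralis FLuc activity quantified from luminescence images.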

UniProt P08659, sequence (P08659 whole entry, looked up): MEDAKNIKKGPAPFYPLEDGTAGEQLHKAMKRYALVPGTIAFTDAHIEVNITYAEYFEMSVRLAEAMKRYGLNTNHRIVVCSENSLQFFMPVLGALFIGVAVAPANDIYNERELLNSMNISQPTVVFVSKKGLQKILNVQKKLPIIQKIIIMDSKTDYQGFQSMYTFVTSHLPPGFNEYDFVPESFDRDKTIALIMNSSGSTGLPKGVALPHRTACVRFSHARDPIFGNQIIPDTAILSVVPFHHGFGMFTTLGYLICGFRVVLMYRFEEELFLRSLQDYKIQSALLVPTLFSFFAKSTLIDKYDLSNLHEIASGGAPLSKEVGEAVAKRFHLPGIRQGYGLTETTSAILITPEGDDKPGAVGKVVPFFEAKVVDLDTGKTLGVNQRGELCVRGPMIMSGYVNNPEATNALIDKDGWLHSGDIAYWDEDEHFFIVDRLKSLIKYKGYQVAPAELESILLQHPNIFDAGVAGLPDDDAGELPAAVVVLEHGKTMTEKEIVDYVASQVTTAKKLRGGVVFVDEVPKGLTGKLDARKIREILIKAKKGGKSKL

SMILES | Potency | activity change, negative = inhibition
CC(=O)c1ccc(OCC(=O)N2CCCCC2)cc1 | inconclusive: 27.5 µM [inhibitor, partial curve] | 
O=C(OCC(O)CO)c1ccccc1Nc1ccnc2cc(Cl)ccc12 (configuration not stated) | inconclusive: 8.71 µM [inhibitor, full curve, poor fit] | 
CC(C)=CCC1=C(O)c2ccccc2C(=O)C1=O | inconclusive: 79.3 µM [inhibitor, single point] | 
COC(=O)Nc1nc2ccc(Sc3ccccc3)cc2[nH]1 | inconclusive: 2 µM [inhibitor, full curve] and inconclusive: 1.95 µM [inhibitor, full curve] | 
O=C(/N=N/C(=O)OCc1ccccc1)OCc1ccccc1 | inconclusive: 71 µM [inhibitor, partial curve] | 
[O-]/[N+](=N\O)c1ccccc1 | active: 35.3 µM and active: 22.4 µM | 
CN(C)c1ccc(C(=N)c2ccc(N(C)C)cc2)cc1 | active: 55.7 µM | 
O=C(c1ccccc1)c1ccc(O)cc1 | inconclusive: 80.6 µM [inhibitor, partial curve, poor fit] | 
CCCCCCCCCC(=O)O | inconclusive: 71.1 µM [inhibitor, partial curve] and inconclusive: 83.9 µM [inhibitor, partial curve, poor fit] | 
CCC(=O)OC(=O)CC |  | inactive: 0.486%
Cc1ccc(S(=O)(=O)NC2CCCCC2)cc1 |  | inactive: 4.73%
Cc1cc2nc3ccc(=[N+](C)C)cc-3sc2cc1N | active: 9.77 µM | 
CC1C2CC(CC2C2CCCC(O)C2)C1(C)C (configuration not stated) |  | inactive: 1.13%
CCCCCCCCCCCCCO | inconclusive: 40.4 µM [inhibitor, partial curve] | 
CC1=Nc2ccc3ccccc3c2C1(C)C | inconclusive: 63.3 µM [inhibitor, partial curve] | 
Oc1ccc(Cc2ccccc2O)cc1 | inconclusive: 22.7 µM [inhibitor, full curve, poor fit] | 
COC(=O)Nc1nc2ccc(C(=O)C3CC3)cc2[nH]1 | active: 19.5 µM | 
CC(=O)NCCO |  | inactive: 0.127%
O=C1c2c(O)ccc(Nc3ccc(CCO)cc3)c2C(=O)c2c([N+](=O)[O-])ccc(O)c21 | active: 17.8 µM | 
CCCCN(CCCC)C(=S)SSC(=S)N(CCCC)CCCC | inconclusive: 62.6 µM [inhibitor, partial curve] | 
Cc1cccc2sc(N)nc12 | inconclusive: 80.7 µM [inhibitor, partial curve, poor fit] | 
CC(C)(C)C1CCC(O)CC1 (configuration not stated) | inconclusive: 40.5 µM [inhibitor, partial curve] and inconclusive: 39.9 µM [inhibitor, partial curve] | 
COc1ccc2nc(N)sc2c1 | active: 35.6 µM and active: 31.7 µM | 
O=[N+]([O-])C1(Br)COCOC1 | active: 25.2 µM | 
